Measured values reported in paper PMC4336329 (PLoS ONE, 2015).
Hit rate of the full screen: of about 310,000 compounds, about 2,200 (0.71%) showed an effect of 50% or more. Effects have a minus sign here. The list shows a part of the results.

Each compound was assayed against human ether-à-go-go-related gene (hERG) potassium channel (human, UniProt Q12809) (assay: primary screen, population patch clamp on CHO cells stably expressing hERG).
human ether-à-go-go-related gene (hERG) potassium channel, sequence (Q12809 whole entry, looked up): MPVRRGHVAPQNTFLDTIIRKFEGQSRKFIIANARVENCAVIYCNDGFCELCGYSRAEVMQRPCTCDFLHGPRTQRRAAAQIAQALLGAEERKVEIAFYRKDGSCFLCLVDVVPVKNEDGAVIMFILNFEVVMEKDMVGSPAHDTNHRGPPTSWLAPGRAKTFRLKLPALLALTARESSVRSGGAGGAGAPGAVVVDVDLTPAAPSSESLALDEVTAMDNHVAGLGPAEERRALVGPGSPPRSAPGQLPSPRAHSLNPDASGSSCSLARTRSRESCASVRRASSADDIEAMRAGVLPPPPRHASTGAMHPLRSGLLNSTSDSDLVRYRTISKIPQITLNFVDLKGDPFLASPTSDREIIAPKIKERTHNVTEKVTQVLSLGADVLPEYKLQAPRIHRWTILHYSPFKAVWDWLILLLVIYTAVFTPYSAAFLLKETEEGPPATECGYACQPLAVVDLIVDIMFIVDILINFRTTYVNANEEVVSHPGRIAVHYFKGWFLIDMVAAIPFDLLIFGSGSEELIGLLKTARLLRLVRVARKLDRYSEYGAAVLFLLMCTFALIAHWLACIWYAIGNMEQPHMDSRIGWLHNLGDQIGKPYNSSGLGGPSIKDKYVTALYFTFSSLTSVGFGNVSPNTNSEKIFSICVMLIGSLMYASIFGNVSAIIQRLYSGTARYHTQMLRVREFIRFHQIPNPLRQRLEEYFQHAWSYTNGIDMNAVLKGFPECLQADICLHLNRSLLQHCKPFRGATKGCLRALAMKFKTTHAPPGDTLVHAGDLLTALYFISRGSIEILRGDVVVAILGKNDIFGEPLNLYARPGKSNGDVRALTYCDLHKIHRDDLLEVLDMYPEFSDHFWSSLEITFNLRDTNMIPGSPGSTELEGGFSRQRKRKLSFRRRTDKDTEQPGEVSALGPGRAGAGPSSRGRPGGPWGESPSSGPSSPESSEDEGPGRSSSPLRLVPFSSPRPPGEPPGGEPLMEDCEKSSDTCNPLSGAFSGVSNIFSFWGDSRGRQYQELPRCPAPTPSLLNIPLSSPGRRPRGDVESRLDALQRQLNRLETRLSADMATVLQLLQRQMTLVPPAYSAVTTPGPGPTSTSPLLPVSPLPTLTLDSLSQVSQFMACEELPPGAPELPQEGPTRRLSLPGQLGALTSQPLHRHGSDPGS

Going from `CCCCNC(=O)CN(c1cccc(F)c1)S(C)(=O)=O` to `CCCCNC(=O)C(=O)N/N=C/c1ccc(OCC(=O)Nc2cccc(OC)c2)c(OC)c1`, the “hERG current change (%, negative = inhibition) at 1uM” value falls from 5.09% to -0.917%.

Compared with `c1ccc(-n2cnc3ccccc32)cc1`, `Clc1ccc2c(NCc3ccccc3)ccnc2c1` is lower in “hERG current change (%, negative = inhibition) at 1uM” value: 5.55% for the first, -1.17% for the second.

Compared with `Cc1ccnc(NC(=O)COC(=O)C23CC4CC(CC(C4)C2)C3)n1`, `CC(OC(=O)c1cc2sccc2n1C)C(=O)NCC1CCCO1` (centres unmarked) is lower in “hERG current change (%, negative = inhibition) at 1uM” value: 12.4% for the first, 8.12% for the second.

Going from `O=C(c1ccc(S(=O)(=O)N2CCCC2)cc1)N(c1ccc(F)cc1)C1C=CS(=O)(=O)C1` (centres unmarked) to `CC1CCCCN1S(=O)(=O)c1ccc(NC(=O)c2cccs2)cc1` (centres unmarked), the “hERG current change (%, negative = inhibition) at 1uM” value rises from -19% to 5.12%.

First: CSc1ncc(C(=O)Nc2cccnc2)c(C(F)(F)F)n1
Second: CC(=O)O.Fc1ccc(NC(=S)Nc2cccnc2)cc1
The “hERG current change (%, negative = inhibition) at 1uM” value of the first is higher: 12.2% for the first, 7.51% for the second.

Going from `Clc1ccccc1C1CC(c2ccccc2)=Nc2ccccc2N1` (centres unmarked) to `Oc1cc(OCc2ccccc2)ccc1-c1[nH]ncc1-c1ccccc1`, the “hERG current change (%, negative = inhibition) at 1uM” value falls from 8.9% to 6.25%.

Going from `CCC(=O)/C=C1\Sc2ccc(OC)cc2N1CCO` to `CCOc1cccc(C(=O)NCc2ccccc2)c1`, the “hERG current change (%, negative = inhibition) at 1uM” value rises from 1.53% to 11%.

Going from `O=c1[nH]c([S-])nc2sc3c(c12)CCCC3.[K+]` to `Nc1nc(-c2ccccc2)[nH]c(=O)c1N`, the “hERG current change (%, negative = inhibition) at 1uM” value rises from 5.18% to 6.76%.

First: O=C(NCc1ccccc1)c1nc[nH]c1C(=O)N1CCc2ccccc2C1
Second: CNC(=O)[C@@H]1C[C@H]1[C@@H](NC(=O)OCc1ccccc1)c1ccccc1
The “hERG current change (%, negative = inhibition) at 1uM” value of the first is higher: 12.7% for the first, -25.8% for the second.

Compared with `O=c1c(-c2nnc(SCc3ccc(Cl)cc3)o2)cccn1Cc1ccccc1`, `CCCn1nnc(NC(=O)c2cccc(OCc3ccccc3)c2)n1` is higher in “hERG current change (%, negative = inhibition) at 1uM” value: -2.76% for the first, 10.8% for the second.

First: O=C(Nc1c(C(=O)N2CCC(N3CCCCC3)CC2)oc2ccccc12)c1c(F)cccc1F
Second: O=C(c1c[nH]c2ccc(S(=O)(=O)N3CCOCC3)cc2c1=O)N1CCCC1
The “hERG current change (%, negative = inhibition) at 1uM” value of the first is lower: -5.22% for the first, -2.34% for the second.

Compared with `CNC1=C([N+](=O)[O-])CC([N+](=O)[O-])=C(N2CCNCC2)N1C`, `Cc1nn(Cc2ccc(C(=O)N3CCOCC3)o2)c(C)c1Br` is higher in “hERG current change (%, negative = inhibition) at 1uM” value: 1.05% for the first, 9.67% for the second.

Going from `O=C(Nc1cccn(Cc2c(Cl)cccc2Cl)c1=O)C1CC1` to `CSc1ccccc1NC(=O)Nc1cccc(Cl)c1`, the “hERG current change (%, negative = inhibition) at 1uM” value falls from 15.9% to 0.949%.

Going from `COC(=O)C1C(=O)C2=C(CC1C)NC(C)=C(C(=O)OC(C)C)C2c1ccc(C)o1` (centres unmarked) to `COc1ccc(NC(=O)CSc2nnc(Cc3ccc(C)cc3)c(=O)n2N)cc1OC`, the “hERG current change (%, negative = inhibition) at 1uM” value rises from 1.34% to 4%.

First: O=C(CNC(=O)Cc1ccccc1)NCC(=O)OCC(=O)c1cccc2ccccc12
Second: CC(=O)NC(CC(=O)N(Cc1ccccc1)c1ccc(C)cc1)c1ccccc1 (centres unmarked)
The “hERG current change (%, negative = inhibition) at 1uM” value of the first is lower: -19.2% for the first, 9.42% for the second.

Going from `O=S(=O)(c1ccc2c(c1)OCCO2)N1CCC(c2nc3ccccc3s2)CC1` to `Cc1ccc(C(=O)N2CCCC(N(C)Cc3ccccc3)C2)s1` (centres unmarked), the “hERG current change (%, negative = inhibition) at 1uM” value falls from 9.7% to -9.48%.

First: O=C(NC1(C(F)(F)F)NC(=O)N(Cc2ccccc2)C1=O)c1cccnc1 (centres unmarked)
Second: O=C(Oc1ccc(N2C(=O)CCC2=O)cc1)c1ccccc1
The “hERG current change (%, negative = inhibition) at 1uM” value of the first is lower: 13% for the first, 15% for the second.

First: COc1ccc(S(=O)(=O)NCC(=O)NCc2cc(=O)n(C)c(=O)n2C)cc1C
Second: Cc1ccc(S(=O)(=O)N=Nc2c(O)[nH]c3ccccc23)cc1C
The “hERG current change (%, negative = inhibition) at 1uM” value of the first is higher: 15.8% for the first, 9.86% for the second.

Compared with `CSc1nnc(C)c(=O)n1COC(=O)/C=C/c1ccc2c(c1)OCO2`, `CCOC(=O)CSc1nnc(CNC(=O)c2cccs2)n1-c1cc(C)ccc1C` is lower in “hERG current change (%, negative = inhibition) at 1uM” value: 5.62% for the first, 1.73% for the second.

Compared with `COc1ccc(C2SCCN2C(=S)Nc2ccc(Cl)cc2)cc1` (centres unmarked), `COc1ccc(NC(=O)CN(C)S(=O)(=O)c2ccc(Cl)cc2)cn1` is lower in “hERG current change (%, negative = inhibition) at 1uM” value: 18.3% for the first, 12.9% for the second.

First: Cc1ccc(C2=N/C(=C\N(C)C)C(=O)O2)cc1
Second: COc1cccc(-c2nnc3sc(C4CCCCC4)nn23)c1
The “hERG current change (%, negative = inhibition) at 1uM” value of the first is lower: -0.584% for the first, 1.93% for the second.

Compared with `CCN(CC(=O)NC(=O)NCc1ccco1)Cc1ccccc1`, `O=C(NCc1ccco1)C(=O)NCC1OCCN1S(=O)(=O)c1cc(F)ccc1F` (centres unmarked) is higher in “hERG current change (%, negative = inhibition) at 1uM” value: 3.34% for the first, 13.3% for the second.
